Hit rate of the full screen: of about 45,000 compounds, about 65 (0.1%) were called active. The call rests on the fitted dose curve; in most records, active means well fitted activation curve with a large enough effect; inconclusive means small, poorly fitted or top-dose-only effect; inactive means no such curve, though single readings can be large or run the other way. The list shows a part of the results.
The compounds below were run against Galactocerebrosidase (Homo sapiens) (UniProt P54803) (assay: A Novel Cell-Based Assay to Identify Small Molecules for B -Galactocerebrosidase). Conditions: 145M-Twi-hGALC-G270D cells (Twitcher mouse brain line with human GALC G270D), HMU-beta-Gal fluorescence, 48 h; series mostly up to 57.5 µM; activation: at the top concentration.
Chain of UniProt P54803 (P54803 whole entry, looked up): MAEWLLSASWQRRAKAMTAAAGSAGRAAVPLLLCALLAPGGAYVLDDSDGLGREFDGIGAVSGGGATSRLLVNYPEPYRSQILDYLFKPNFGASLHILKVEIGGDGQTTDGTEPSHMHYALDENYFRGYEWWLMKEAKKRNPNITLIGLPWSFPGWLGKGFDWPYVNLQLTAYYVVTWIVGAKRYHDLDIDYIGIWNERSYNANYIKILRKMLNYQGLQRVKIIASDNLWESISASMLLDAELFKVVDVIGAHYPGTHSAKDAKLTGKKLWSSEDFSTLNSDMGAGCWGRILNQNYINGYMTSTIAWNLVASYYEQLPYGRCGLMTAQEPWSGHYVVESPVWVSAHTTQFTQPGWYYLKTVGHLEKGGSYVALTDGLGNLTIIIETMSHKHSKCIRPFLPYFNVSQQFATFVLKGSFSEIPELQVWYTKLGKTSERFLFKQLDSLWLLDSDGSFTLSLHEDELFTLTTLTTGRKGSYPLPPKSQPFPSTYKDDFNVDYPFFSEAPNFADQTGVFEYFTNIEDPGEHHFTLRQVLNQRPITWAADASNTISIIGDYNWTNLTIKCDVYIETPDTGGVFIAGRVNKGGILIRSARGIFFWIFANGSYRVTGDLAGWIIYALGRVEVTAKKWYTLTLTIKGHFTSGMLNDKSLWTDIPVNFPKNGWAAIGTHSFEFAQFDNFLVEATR
Outline: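 Brain-derived Twitcher mouse 145M-Twi cells stably expressing human GALC-G270D or wild-type GALC, treated live, then residual GALC activity read by fluorescence of HMU-b-Gal substrate (0.1 mM final) in citrate-phosphate buffer pH 5.2 with sodium taurocholate. Signal increase indicates enhancement.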
Further: 0% is about no effect; nearly all actives have a fitted effect of over 65% in size.

activation, inactive:
Cc1ccc(Nc2ncnc3c2cnn3-c2ccc(C)cc2)cc1 -15.6%, CN(C)CCN(Cc1ccccc1)S(=O)(=O)c1ccc(-c2cc(C(F)(F)F)on2)s1 3.43%, CCOc1ccc(NS(=O)(=O)c2ccc3[nH]cc(C(=O)NCCOC)c(=O)c3c2)cc1 -13.4%, CN(C)CCNC(=O)CCCn1c(=O)c2cccn2c2ccccc21 -15.6%, Cc1ccc(Cl)cc1N(C)C(=O)c1noc2c1CCCCC2 -20.2%, Cc1nn(Cc2noc(C(=O)NCc3cccc(F)c3)n2)c(C)c1Br -25.3%, CSCCC(NS(=O)(=O)c1ccc2c(c1)oc(=O)n2C)C(=O)NCc1ccc(F)cc1 (centres undefined) -12.8%, COc1ccc(-n2cc(C(=O)N(C)c3cc(C)ccc3OC)c3ccccc3c2=O)cc1 -12.8%, COc1ccc(NC(=O)c2sc3nc(C)c(C(=O)Nc4ccc(C)cc4C)c(-c4ccccc4Cl)c3c2N)cc1 -12.1%, COc1ccccc1NC(=O)C1=C(C)Nc2nc(SCC(=O)c3ccc(C)cc3)nn2C1c1ccccc1C (centres undefined) -18.7%, CCOc1ccccc1CN1CCc2nc(N3CCN(C)CC3)ncc2C1 -14.3%, Cc1ccc(NC(=O)CSc2nc(-c3cccs3)nc3cc(=O)[nH]n23)cc1C -16.4%, COc1ccc(-c2cn3cccnc3n2)cc1NC(=O)Nc1cc(C)ccc1C -14.7%, O=C(NCCc1ccccc1)C1CCN(Cc2cc3ccccc3n2Cc2ccccc2)CC1 1.05%, CCOCCCNc1nc2c(S(=O)(=O)c3ccc(CC)cc3)nnn2c2ccc(Cl)cc12 13.6%, O=C(Cn1ncc2c3ccccc3n(Cc3cccc(Cl)c3)c2c1=O)NCCCN1CCCCC1 -15%, Cc1ccc(C)c(N2CCN(S(=O)(=O)c3ccc(-c4cnc(C5CC5)o4)cc3)CC2)c1 -13.4%, Cc1ccc(CNC(=O)Cn2c(=O)cc(C)c3c(C)nn(-c4cccc(F)c4)c32)cc1 -7.88%, O=C(Nc1ccc(C(=O)N2CCN(c3ccccc3F)CC2)cc1)c1nsc2ccccc12 -5.94%, CN1C(C(=O)c2ccccc2)=C(NC(=O)c2ccc(F)cc2)c2ccccc2S1(=O)=O -15.1%, COc1ccc(COC(=O)C2=C(C)NC(=O)CC2c2cccc(Cl)c2Cl)cc1 (centres undefined) -8.21%, CCOc1ccc(-c2cc(C(=O)NC(C)c3ccccc3)c3ccccc3n2)cc1 (centres undefined) -15.9%, COc1ccc([C@@H]2Sc3ccccc3NC(=O)[C@@H]2O)cc1 -6.52%, Cc1cccc(C(=O)NC2(C(F)(F)F)N=C(c3ccccc3)N(C3CCCCC3)C2=O)c1 (centres undefined) 2.23%, O=C(NCCc1ccc(Cl)cc1)c1ccc2c(c1)nc1n2CCOC1 -2.25%, CN(C)CCN(Cc1ccco1)C(=O)c1cc2c(s1)-c1ccccc1OC2 -8.66%, COc1ccc(-c2onc(C)c2C)cc1S(=O)(=O)Nc1cccc(C#N)c1 -14.4%, CCOC(=O)N1CCc2c(sc3c2c(=O)n(-c2ccc(F)cc2)c(=O)n3CC(=O)c2ccc(Cl)cc2)C1 -7.39%, CC(C)C(=O)OCc1cccc(OC(=O)[C@@H]2N3C(=O)[C@@H](NC(=O)Cc4ccccc4)[C@H]3SC2(C)C)c1 -10.7%, COC(=O)[C@H]1[C@H]2C[C@@H]3c4[nH]c5cc(OC)ccc5c4CCN3C[C@H]2C[C@@H](OC(=O)COc2ccc(OC)cc2)[C@@H]1OC -26.3%, CCOc1ccc(C(=O)NCC(c2ccc(Cl)cc2)N2CCCCC2)cc1 (centres undefined) -7.97%, CC(=O)C1=C(c2ccc(F)cc2)N(C(C)=O)n2c(nnc2C2CCCCC2)S1 -2%, CCCNC(=O)CSc1c(CCC)cnc2c1c(=O)n(C)c(=O)n2C -12.5%, CC(C)COCC(CN(Cc1ccccc1)c1ccccc1)N1CCCC1 (centres undefined) -5.22%, Cc1cc(C)c(NC(=O)C(C)n2c(=O)cc(-c3ccccc3)c3c(C)nn(C)c32)c(C)c1 (centres undefined) -13.7%, COc1ccc(-c2nnn3c2nc(NCc2ccc(C)cc2)c2ccccc23)cc1 -0.834%, CCCCNc1ccc(-c2nc(-c3ccccn3)no2)cc1[N+](=O)[O-] 3.08%, Cc1ccccc1C(=O)OCc1cc(=O)n2nc(C3CCCCC3)sc2n1 -11.4%, Cc1nnc2c(N3CCN(c4ccc(F)cc4)CC3)nc3ccc(C(=O)c4ccccc4)cc3n12 -11.1%, O=C(CN1C(=O)C2(SCC(=O)N2c2cccc(F)c2)c2ccccc21)NCCc1ccccc1 (centres undefined) -14.7%, O=C(CCOCCOCCOCCOCCC(=O)Nc1c(I)cc(I)c(C(=O)O)c1I)Nc1c(I)cc(I)c(C(=O)O)c1I -5.02%, CCOC(=O)c1cnc(N2CCN(c3cccc(C)c3C)CC2)c2ccccc12 -12.8%, O=C(NCCc1csc(-c2cccnc2)n1)c1ccccc1 -9.13%, CCOC(=O)c1cc(-c2ccc(OC)c(S(=O)(=O)NCc3ccccc3Cl)c2)on1 -15.6%, CC1CCCCN1CCCNC(=O)CN1C(=O)CSc2ccc(S(=O)(=O)N3CCOCC3)cc21 (centres undefined) -4.28%, CCc1ccc(NC(=O)Nc2ccccc2OCc2cc(=O)n3ccccc3n2)cc1 -7.69%, COc1ccc(OC)c(NC(=O)Cn2ccn(-c3ccc(OC)c(OC)c3)c(=O)c2=O)c1 -5.78%, CCc1c(C)sc2c1CCN(C(=O)Nc1ccccc1C(=O)OC)C2c1ccc(OC)cc1 (centres undefined) -18.9%, Cc1ccc(NS(=O)(=O)c2ccc3c(c2)CC(=O)N3)cc1Cl -20.5%, COc1ccc(C)cc1NC(=O)c1c2c(nc3ccccc13)C(=O)N(C1CCCCC1)C2 -14.7%, Cc1ccc(Cl)cc1NC(=O)C(Cc1ccccc1)NS(=O)(=O)c1cccc2nsnc12 (centres undefined) -12.5%, CCOc1ccc(Br)cc1C1C(C(=O)OC)=C(C)NC2=C1C(=O)c1ccccc12 (centres undefined) -21.2%, CCN(C(=O)CSc1ncc2c(n1)-c1cc(Cl)ccc1N(Cc1ccccc1)S2(=O)=O)c1cccc(C)c1 -13.1%, Cc1ccc(-c2cc3ncc(C(=O)c4cc(Cl)c(C)cc4O)cn3n2)cc1 -6.87%, NC(=O)c1ncn([C@@H]2O[C@H](CO)[C@@H](O)[C@H]2O)n1 -2.25%, CCn1c(=O)cc(OCC(=O)N(C)c2ccc(OC)cc2)c2ccccc21 -14%, CCOc1ccc(NC(=O)CN2C(=O)C(c3ccc(Cl)cc3)=NC2(C)C)cc1 -23.5%, CCC(=O)N1CCc2cc(Br)cc(S(=O)(=O)N3CCCC(C(=O)Nc4cc(C)ccc4OC)C3)c21 (centres undefined) 9.5%, O=C(NCc1ccc(Cl)cc1)C1=Cc2cc(Br)ccc2OC1 -8.43%

— PubChem BioAssay AID1159614 (National Center for Advancing Translational Sciences (NCATS), 2016)
